Source: publication PMC12136788
This is one part of the list.

B1: chr4:25749455:25749456:-_ENSG00000091490_ENST00000264868|hu_hu|hu_hu_hu_mus_False|1_48 (ssRNA)
RNA: GGGAGUUCUACAGUCCGACGAUCGCACUAUGACCUCUAGAAAAAUCCACAGGGGGAAAAAAUGUAAACCAAUGUACAAUGUUAUCGCCCUCCCUGCGUGUGGAGUGUUUGUCUCAAGGCUCCUUCUAGCUGCUGGACUGCUAGCAACAGAGGAUUGAGCAUCA
B2: chr2:27599549:27599550:+_ENSG00000115234_ENST00000233575|hu_hu|FALSE|FALSE (ssRNA)
RNA: GGGAGUUCUACAGUCCGACGAUCCAGACAUCCAAGCAGUGGAGAUUACAGAUCCUCAUCUCCAAUGCCCUCGAAGGCGAAAUUGCCGUGGACAUCACUGGCACUGGCAUCUGUGCUGGGACUGCCAAUUCCCCGCAAGCUCACCAACAGAGGAUUGAGCAUCA
B3: chr17:60770872:60770873:+_ENSG00000011028_ENST00000303375|hu_hu|hu_hu_hu_mus_True|8_8 (ssRNA)
RNA: GGGAGUUCUACAGUCCGACGAUCUCUUUAAAAAAAAAAAAAAAAAGACAAACAAUAAUAGCACAUUUCGAGAAUCAAGAACUACAAUAGAGGGUCCGCUUUGAGUUUUUGUUCACAUCGUCCUGCAACGCUGUCGCGGGACUGCAACAGAGGAUUGAGCAUCA
B4: 31538562_31538682_760_CDS_ENSG00000082213_ENST00000325366|human|control|control (ssRNA)
RNA: GGGAGUUCUACAGUCCGACGAUCAGUCUGGCAUUCCUGAUUUUCAGAAGAACAUGAACAUGAUGGUUCUAGGCAAGUCUGGUCACUUCUCUGUGUUGCUGUGUCCUUUUCCAGUCCUUCUGAAGAAGAGUCACAGUUAGUAGACAACAGAGGAUUGAGCAUCA
B5: chr16:2758876:2758877:+_ENSG00000167977_ENST00000301738|hu_mus|motif|central (ssRNA)
RNA: GGGAGUUCUACAGUCCGACGAUCAAGUUUUAAUAUCAUUAAAUUAAAAAAACAGAAACAAAAACCCCCAGAAGCCGGUCGGUUGUCAAAGUCAUAAAUGAAGCAAUGCUGAGUGUCCAGCCACUCCCCAGAGCAUCCCCAUGGCAACAGAGGAUUGAGCAUCA
B6: chr8:27667896:27667897:-_ENSG00000168078_ENST00000301905|hu_mus|FALSE|FALSE (ssRNA)
RNA: GGGAGUUCUACAGUCCGACGAUCAGCUUCAACGAUGUGUGCAGCAGACGGGCGAUCUUUAGGAUCCUCAUUAGUGCACACACAGAAGAGUUCAAUGGCCUUCUGGUAGGAGUCAUCCAGCUCUUCCAUGUUGAUGGAUGGCCUCAACAGAGGAUUGAGCAUCA
B7: 87446211_87446331_1862_CDS_ENSG00000140948_ENST00000268616|human|control|control (ssRNA)
RNA: GGGAGUUCUACAGUCCGACGAUCGGGUGCGGACGCGGGCAGCACGUCCAUCAUGGCGCUGCCAAAGCUCUUGUCCACUUUCAUGCUGCUUCUUGGUCCAGAUCCUUUAUUCCUUUCUUCUAGAGACAAAAGUGAGUGCACAGACAACAGAGGAUUGAGCAUCA
B8: 193605883_193606003_5042_3pUTR_ENSMUSG00000026623_ENSMUST00000110855|mouse|control|control (ssRNA)
RNA: GGGAGUUCUACAGUCCGACGAUCGCCGGGAACUAGCACACCUGCUACACAGUCUCAUCUGCCUCUCUCUUGCCUGCUGAUAGCUAUAAGGCCCAGAGCACUUGGAGGGCAAAAUUCCCAUCAAAGGCCAUUACCAUUCAUCCUCAACAGAGGAUUGAGCAUCA
B9: 98513226_98513889_1220_3pUTR_ENSG00000140450_ENST00000268042|human|control|control (ssRNA)
RNA: GGGAGUUCUACAGUCCGACGAUCGGGUUGAGGGUAAGGAGGAAUGUGUCUAGAGAAUUCUUCCUCUGAUACCACAUCUGCAUAAUUUGGUGGUGCUUCAGGCUGCUCUGGCAGGGUCAGUGUCAACCAGCUCAUAUCCAUACUCAACAGAGGAUUGAGCAUCA
B10: chr15:51794541:51794542:-_ENSMUSG00000022314_ENSMUST00000022927|mus_hu|motif|central (ssRNA)
RNA: GGGAGUUCUACAGUCCGACGAUCCUGAAGUCUGAGUUUCAAAAGUGAUUUUUUUUUCCCACAAAAGUUUCAACACUUAAGCGGGAACUUUCAGUGUUAACUUUGCCCUAAAAAGUUAAGACAUUCUGAUAAUCAUAACAGUCACAACAGAGGAUUGAGCAUCA
B11: chr16:94913618:94913619:+_ENSMUSG00000022897_ENSMUST00000122284|mus_mus|motif|central (ssRNA)
RNA: GGGAGUUCUACAGUCCGACGAUCAGUCAUGUAAUGUGCAGGACCUGUAUUAGCAGAAAAUUGGUAUGUUGGAUGUCCAGCGGUGCCAGUCUCUUGGCGGGGAUUGGAGUAGACGGUCAAAUUAACGUCCAUAGCUCCAUUCUGCAACAGAGGAUUGAGCAUCA
B12: chr2:160605069:160605070:+_ENSG00000136536_ENST00000409591|hu_hu|FALSE|FALSE (ssRNA)
RNA: GGGAGUUCUACAGUCCGACGAUCAGCUCCAAGAGGAUCAUUCUGUGCUUCAAGGUGAACCACUUCAUUUGAUUCUCUUCUAAAAAUAUGAGAUCUAGAUGAUGUAUCAGAGGUAGGUAUCCUUGAAGAUUCAUCUCUUCCCUCCAACAGAGGAUUGAGCAUCA
B13: 49445221_49445341_2184_CDS_ENSG00000167548_ENST00000301067|human|control|control (ssRNA)
RNA: GGGAGUUCUACAGUCCGACGAUCCUCAGGCCGGGGUGACAGGUGCGGCCCCUCGGACCGGGGGCAGAGUUGCGGCUCCUCAGGUAGUGGCAACAGGGGUGACUCCUCCAGCGGCAGGGACAUGAGCGAGUCCUCCGGUGGUGGCAACAGAGGAUUGAGCAUCA
B14: 31822757_31825123_730_3pUTR_ENSMUSG00000053134_ENSMUST00000065388|mouse|control|control (ssRNA)
RNA: GGGAGUUCUACAGUCCGACGAUCCUGUCACAGGCUCUCCUUUCCCGCGGUAAAAGUCACUCUCUGGGUCACUGUGCCGGAUCUGGAAUGGAGCAUUGGGAUUUUUACAGUCUAAAGGCUGGAGGUCAUCAGGGAGAGGAGGUGCAACAGAGGAUUGAGCAUCA
B15: chr4:57314706:57314707:+_ENSG00000128050_ENST00000264221|hu_mus|hu_hu_hu_mus_True|38_38 (ssRNA)
RNA: GGGAGUUCUACAGUCCGACGAUCCAGAAUUUCAAAAAUAGCUUGUGUGGCAUGACUCAUGAUGUCCACUUCAGUCUGCCCUAUAACAAGGCCAGCAAAGCAAAAUUUUGCAGCAAUGAGUUGCUCCUCAGACCACUGUGGAUCCAACAGAGGAUUGAGCAUCA
B16: chr3:148802587:148802588:-_ENSG00000071794_ENST00000310053|hu_mus|hu_hu_hu_mus_False|98_108 (ssRNA)
RNA: GGGAGUUCUACAGUCCGACGAUCUCCAACCACAUGACCUCUCAAACUUCCAAAUAAAACCAAAUCUUGCUCUUCAUCACUCGUUAGGAAGUCAUCUGGAGGAAUAAUGUCUUGGAAUUCAAAAUGUGGCAAGAAAGUUGAGUACAACAGAGGAUUGAGCAUCA
B17: chr1:58468927:58468928:-_ENSMUSG00000026034_ENSMUST00000148330|mus_mus|mus_mus_mus_hu_False|28_78 (ssRNA)
RNA: GGGAGUUCUACAGUCCGACGAUCAAUUACUGAAAAAGAUGUUCAUUACCUUAGCUAGGCCAUGUAUGAACCAAAUUACCCAAACAAAAUAAACAUGGCAAUAUAAAAAGCUAUACAAUUUACAAAGCUGUACAAAAUAACUUACAACAGAGGAUUGAGCAUCA
B18: chr4:148551591:148551592:-_ENSMUSG00000063077_ENSMUST00000060537|mus_hu|mus_mus_mus_hu_False|78_78 (ssRNA)
RNA: GGGAGUUCUACAGUCCGACGAUCACCUGACAAAAUUAAAUAUCCCUGUAAAUUAGACAAGAAGCAGCAGGCAACAAAGUCUUUGCUUUGGAAUAUGUGCCAGGAAAAGUCAUCUUGUUUUUAGAUCUCAAGAGACAGUUCACACAACAGAGGAUUGAGCAUCA
B19: chr1:135503150:135503151:-_ENSMUSG00000090553_ENSMUST00000166915|mus_mus|FALSE|FALSE (ssRNA)
RNA: GGGAGUUCUACAGUCCGACGAUCUUCUGCAUCAUCUAAUACGAGGUUCAUGUACUCAUCAAAGCCAAUAAUACAACCUUCUAUCCGCAUAUUCACUUGUUCAUACAGCCACACCUGAAUUCGAGAUCUAUUUUGCAAGUAUCUCAACAGAGGAUUGAGCAUCA
B20: chr1:118462952:118462953:-_ENSG00000196505_ENST00000369442|hu_hu|FALSE|FALSE (ssRNA)
RNA: GGGAGUUCUACAGUCCGACGAUCGGCAUGAGUCACCCCAGCUUGGUAGUGUAUCCACAUCCACAAACUGGGAAGGUGCACCUAAGGGAUCCAUGGAAUGGGAACUUUGAUUUGUCUUUUCCCAAAAUCCUCAGCAAUUCAAUACAACAGAGGAUUGAGCAUCA
B21: 29207450_29207570_675_CDS_ENSG00000120875_ENST00000240100|human|control|control (ssRNA)
RNA: GGGAGUUCUACAGUCCGACGAUCGGCGCGCGGGCUGCGCUCGUCGUAGACGAUGACCGCCGAGUAGAGGCCGGAGCGCAAGCGGGCGCGUACCUCCUCCUCGGCGGGCAGGAUCUGCUCCAGGCUCACGGAGCCCUUAGCCCGCAACAGAGGAUUGAGCAUCA
B22: chr17:13104604:13104605:-_ENSMUSG00000057388_ENSMUST00000079121|mus_mus|FALSE|FALSE (ssRNA)
RNA: GGGAGUUCUACAGUCCGACGAUCAUAGAUUCUUCGAGGCUCCCGAAGCAUCACGCCACUUUCUGUCAUGGCAUUUUGUAAACGUUUUAUCGAGUCUGAGGACGCCUCCCACGGGGUGGGCUGGUAGACCAUGAAGUUGAUUCCCAACAGAGGAUUGAGCAUCA

Each binder was assayed against T1, UNK ZnF1-3 (human, UniProt Q9C0B0 31-174) (assay: nsRBNS (natural sequence RNA bind-n-seq); RBNS binding buffer (assumed for nsRBNS): 25 mM Tris pH 7.5, 150 mM KCl, 3 mM MgCl2, 0.01% Triton X-100, 500 ug/ml BSA, 20 U/ml SUPERase-In, 4 C; UNK is unkempt and MSI1 is Musashi-1; names of the RNAs are library labels; protein concentration not given here; high values mean tight binding).
T1 sequence: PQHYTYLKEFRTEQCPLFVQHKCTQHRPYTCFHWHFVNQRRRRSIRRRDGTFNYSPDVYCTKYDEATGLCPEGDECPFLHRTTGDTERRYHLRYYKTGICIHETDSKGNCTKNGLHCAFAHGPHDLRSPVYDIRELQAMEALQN

Binder | binding signal
B1 | 0.878 enrichment R
B2 | 0.972 enrichment R
B3 | 2.1 enrichment R
B4 | 0.666 enrichment R
B5 | 2.78 enrichment R
B6 | 0.396 enrichment R
B7 | 0.748 enrichment R
B8 | 1.22 enrichment R
B9 | 1.09 enrichment R
B10 | 0.511 enrichment R
B11 | 0.923 enrichment R
B12 | 1.07 enrichment R
B13 | 1.37 enrichment R
B14 | 1.66 enrichment R
B15 | 0.975 enrichment R
B16 | 1.25 enrichment R
B17 | 0.897 enrichment R
B18 | 1.21 enrichment R
B19 | 0.92 enrichment R
B20 | 0.72 enrichment R
B21 | 0.591 enrichment R
B22 | 1.04 enrichment R
